Results reported in PubChem BioAssay AID1259400 (National Center for Advancing Translational Sciences (NCATS), 2018).
About 2,100 (0.6%) of roughly 350,000 compounds were called active. The inconclusive results got no clear call from the source; some entries with a clear call stand among them for comparison.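 How the source made its calls: active means activity change of -60% or lower, but not beyond a set lower limit; inconclusive means change between -60% and -40%, or beyond the set limit; inactive means change above -40%.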

Target: Relaxin receptor 1 (Homo sapiens) (UniProt Q9HBX9)
Experiment: qHTS Assay for Antagonists of the Relaxin Receptor RXFP1
Details: HEK293-RXFP1, relaxin-stimulated cAMP HTRF, 30 min; at 57.5 µM; hits give low values
On the % scale 0 is the no-effect control and ±100 the full control effect.

Chain of UniProt Q9HBX9 (Q9HBX9 whole entry, looked up): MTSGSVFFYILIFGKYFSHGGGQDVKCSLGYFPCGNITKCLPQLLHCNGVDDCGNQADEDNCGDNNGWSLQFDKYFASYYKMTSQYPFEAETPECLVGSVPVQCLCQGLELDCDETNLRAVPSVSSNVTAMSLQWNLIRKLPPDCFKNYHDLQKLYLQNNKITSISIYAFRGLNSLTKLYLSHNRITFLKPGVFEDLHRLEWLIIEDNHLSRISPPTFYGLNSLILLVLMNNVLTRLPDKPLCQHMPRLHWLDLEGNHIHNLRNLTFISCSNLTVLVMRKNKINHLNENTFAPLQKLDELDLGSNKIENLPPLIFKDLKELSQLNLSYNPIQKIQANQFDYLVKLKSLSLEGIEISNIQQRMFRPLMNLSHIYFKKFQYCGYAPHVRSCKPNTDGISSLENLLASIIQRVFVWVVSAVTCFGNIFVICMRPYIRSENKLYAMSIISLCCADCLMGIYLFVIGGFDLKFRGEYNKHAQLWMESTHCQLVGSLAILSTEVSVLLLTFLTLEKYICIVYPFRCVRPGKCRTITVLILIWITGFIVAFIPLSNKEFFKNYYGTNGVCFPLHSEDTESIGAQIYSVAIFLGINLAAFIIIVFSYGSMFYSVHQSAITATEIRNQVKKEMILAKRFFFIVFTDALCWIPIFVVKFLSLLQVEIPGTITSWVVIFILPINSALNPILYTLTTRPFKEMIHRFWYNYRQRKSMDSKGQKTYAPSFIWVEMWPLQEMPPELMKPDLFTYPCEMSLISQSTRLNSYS

SMILES	activity change, negative = inhibition
Cc1cccc(N(C)C(=S)Oc2ccc3c(c2)C2CCC3C2)c1 (centres undefined)	inconclusive: -46.3%
COc1cccc(-c2cc(C(=O)N3CCN(C(=O)c4ccco4)CC3)[nH]n2)c1	inconclusive: -59.3%
Cc1c(/C=C2\SC(=O)N(CC(=O)Nc3ccc4c(c3)OCO4)C2=O)c2ccccc2n1C	inconclusive: -45%
CC(=O)Oc1ccc(C2(c3ccc(OC(C)=O)cc3)C(=O)Nc3ccccc32)cc1	inconclusive: -40.3%
Cc1cccc(Nc2nc(-c3ccc(O)cc3O)cs2)n1	active: -78.9%
CCc1ccc(OCCCC(=O)Nc2ccc(S(N)(=O)=O)cc2)cc1	inconclusive: -44%
COc1ccc(NC(=O)Nc2ccc3c(c2)N(C)C(=O)CS3)cc1Cl	inconclusive: -44.6%
CC(c1ccccc1)N1CCC(CNC(=S)Nc2cccc(Cl)c2)C1 (centres undefined)	inconclusive: -48%
CCCCS(=O)(=O)c1oc(-c2cccs2)nc1S(=O)(=O)c1ccc(F)cc1	active: -76.3%
CCCOC(=O)CSc1nnc(-c2ccc(Cl)cc2Cl)o1	inconclusive: -45.7%
CN(C)c1ccc(C=Nc2ccc(N(C)C)cc2)cc1	inconclusive: -59.3%
[O-][N+]1=c2ccc(Nc3ccccc3)cc2=NC12CCCCC2	inactive: -9.26%
CCN(CC)S(=O)(=O)c1ccc2c(c1)N(CC(=O)Nc1ccc(OC)cc1)C(=O)CS2	inactive: -4.4%
CCc1ccc2c(CN3CCN(S(=O)(=O)c4ccccc4F)CC3)cc(=O)oc2c1	inactive: -5.15%
Cc1cccc(-c2nc(CCNC(=O)c3ccc(Br)o3)cs2)c1	inconclusive: -52.4%
CCn1c(=O)c(C(=O)NNC(=O)c2cccc(Cl)c2)c(O)c2ccccc21	inconclusive: -43.8%
Cc1ccc2c(C)c(C(=O)NCCN3CCCC(O)C3)oc2c1C (centres undefined)	active: -112%
O=C(CSc1cccc2cccc(Cl)c12)NC1=NCCS1	inconclusive: -50.8%
CCc1ccc(C(C)NC(=O)C2CCCO2)cc1 (centres undefined)	inconclusive: -59.9%
O=C(Nc1ccc(OC(F)(F)F)cc1)C(Cc1ccccc1)NS(=O)(=O)c1cccc2nsnc12 (centres undefined)	inconclusive: -42.6%
CCn1c(SC)nnc1-c1nn(-c2ccccc2)ccc1=O	inconclusive: -48%
O=C(N/N=C/c1cccnc1)c1cccc(S(=O)(=O)Nc2cccc(Cl)c2)c1	inconclusive: -45.9%
Cc1cc(C)c(S(=O)(=O)N2CCCCCC2)cc1Br	inconclusive: -49%
NC(=O)COC(=O)c1cc(S(=O)(=O)N2CCN(c3ccccc3)CC2)ccc1Cl	inconclusive: -45.5%
COc1ccccc1N(C)S(=O)(=O)c1ccc(C(=O)NCC(c2ccco2)N2CCCCC2)cc1 (centres undefined)	inactive: 3.81%
Fc1ccc(C(CCNCc2ccccn2)c2ccc(Cl)cc2)cc1 (centres undefined)	inconclusive: -40.8%
Cc1ccccc1N1CCN(Cc2ccc([N+](=O)[O-])o2)CC1	inactive: 1.1%

SMILES	activity change, negative = inhibition
Cc1ccc(OCC(=O)N2N=C(c3ccc(Cl)cc3)CC2c2ccco2)c([N+](=O)[O-])n1 (centres undefined)	inactive: -21.4%
O=C(CCc1nnc(CCCc2ccccc2)o1)NCCc1ccccc1	inactive: 7.68%
Cc1occc1C(=O)N/N=C/c1c(O)ccc2ccccc12	inconclusive: -56.8%
Cc1ccc(CNC(=O)c2ccc3c(c2)NC(=O)C(N2CCOCC2)S3)cc1 (centres undefined)	active: -61.7%
CC(OC(=O)c1ccc(O)cc1)C(=O)Nc1nc(-c2ccccc2)cs1 (centres undefined)	active: -85%
Cc1c(C)n(Cc2ccccc2)c2ccc(C(=O)NCC(C)c3ccccc3)cc12 (centres undefined)	inactive: -12.3%
COC(=O)C1CCN(C(=O)Cn2nnc(-c3ccccc3)n2)CC1	inconclusive: -42.4%
CCCCC(O)(c1ccc(F)cc1)C(CN1CCOCC1)c1ccc(Cl)cc1 (centres undefined)	active: -77.5%
CC(=O)Nc1ccc(SCC(=O)c2cc(C)n(-c3ccccc3F)c2C)cc1	inconclusive: -40.2%
Cc1nn(C)c(C)c1S(=O)(=O)N(CC(=O)NCCc1ccc(Cl)cc1)c1ccc(C(C)C)cc1	inactive: -11.9%
O=C(O)C/C=C(/NC(=O)OCc1ccccc1)C(=O)OCc1ccccc1	inconclusive: -43.5%
COc1ccc(Br)cc1CNC(=O)c1cc(=O)[nH]c2ccc(S(=O)(=O)N3CCCCC3C)cc12 (centres undefined)	inconclusive: -45.2%
CCOc1ccc(/C=C2\SC(=S)N(N3C(=O)C4CC4C3=O)C2=O)cc1 (centres undefined)	inconclusive: -43.2%
CC(NC(=O)COC(=O)c1cn(-c2ccccc2)nc1-c1cccs1)c1ccccc1 (centres undefined)	inconclusive: -51.8%
O=C(N/N=C/c1sc(N2CCOCC2)nc1-c1ccccc1)c1ccccc1O	inconclusive: -44.7%
CC(C)N(Cc1cn[nH]c1-c1ccc(-c2ccccc2)cc1)Cc1nccn1C	inconclusive: -41.6%
Cc1ccc2nc(-c3ccccc3)cc(C(=O)N(C)CC(=O)Nc3ccccc3Br)c2c1	active: -75.2%
O=C(c1cccc(C(F)(F)F)c1)N1CCc2c([nH]c3ccccc23)C1C(F)(F)F (centres undefined)	active: -92.4%
Cc1ccc(CSCC(=O)N(C)CC(=O)Nc2cccc(F)c2)cc1	inconclusive: -49.5%
CN(C)CCCNC(=O)c1cc2sc3ccccc3c2s1	inconclusive: -49.7%
CC1=CC(C)C2(COC(=O)Nc3ccccc3)COC(C)C1C2C (centres undefined)	inconclusive: -41.8%
COc1ccc(CN2CCN(C(c3ccc(F)cc3)c3ccc(F)cc3)CC2)c(OC)c1OC	active: -106%
COc1ccc(-c2csc3ncnc(N4CCN(S(=O)(=O)c5ccc(Cl)s5)CC4)c23)cc1	inconclusive: -56%
CCC(=O)N1c2ccccc2CC1C(=O)NCc1cc(Br)ccc1OC (centres undefined)	inactive: 3.43%
Cc1ccc(CN2CCN(C(=O)CCC(=O)Nc3nnc(C(C)C)s3)CC2)c(C)c1	inconclusive: -43.5%
Cc1ccc2nc(-c3ccccn3)c(Nc3ccccc3C)n2c1	inconclusive: -59.4%
CC(C)Oc1ccc(S(=O)(=O)N2CCCCC2)cc1NC(=O)CN1C(=O)NC2(CCCC2)C1=O	inconclusive: -40.6%
